# Measurements from PubChem BioAssay AID624173 (National Center for Advancing Translational Sciences (NCATS), 2012).
# The campaign covered roughly 410,000 compounds. About 490 (0.12%) were called active. Inconclusive results, whose numbers are uncertain, are shown with a selection of clear calls. Calls follow the shape of the dose curve; as a rule, active = well fitted inhibition curve with a large enough effect; inconclusive = small, poorly fitted or top-dose-only effect; inactive = flat fitted curve, though single readings scatter. Potencies of inconclusive entries are doubtful fits and often do not repeat.
# Molecular target: pyruvate kinase (Trypanosoma brucei) (UniProt Q57TT1)
# Assay: qHTS of Trypanosoma Brucei Inhibitors; also: nearly all actives have a fitted effect of over 50% in size
# Settings: TbPYK enzyme, Kinase-Glo Plus ATP luminescence, 45 min; series mostly up to 76.8 µM; activity, negative = inhibition: at the top concentration
# Procedure, shortened: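 Activity of T. brucei pyruvate kinase was followed by Kinase-Glo Plus luminescence after the enzyme reacted 45 min at room temperature with 130 uM ADP (final) and substrate. Test compounds were added before ADP at multiple concentrations.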
# % is scaled to controls: 0 for no effect and ±100 for the full control effect; potency is read from the fitted curve at half-maximal effect; tags tell the direction and shape of the fitted curve.
SMILES,"activity, negative = inhibition",Potency
O=C(CN1CCCC1)Nc1c2c(nc3ccccc13)N(Cc1ccccc1)CC2,inactive: 7.12%,–
CC(C)n1cc(/C=C/c2cc[n+](C)cc2)c2ccccc21,inactive: -16.5%,–
COc1ccc(C(=O)Nc2nc3ccccc3s2)c(OC)c1,–,"inconclusive: 35.5 µM [inhibitor, single point]"
Nc1cc(Cl)ccc1N1CCCCCC1,inactive: -0.528%,–
COc1cc(C(=O)NCCc2ccc(F)cc2)c([N+](=O)[O-])cc1OC,–,"inconclusive: 31.6 µM [inhibitor, partial curve, poor fit]"
CC1(C)Cc2c(c(N3CCOCC3)nc3snc(Br)c23)CO1,–,"inconclusive: 28.2 µM [inhibitor, single point]"
CC(C)c1ccccc1-n1cc[nH]c1=S,–,"inconclusive: 8.91 µM [inhibitor, partial curve]"
CCc1ccc(Nc2nc3c(S(=O)(=O)c4cccc(Cl)c4)nnn3c3ccsc23)cc1,inactive: -10.9%,–
Cc1ccc(N2C3=C(C(=O)CC(C)(C)C3)C(c3cn(C)nc3C)C3=C2CC(C)(C)CC3=O)cc1,–,"inconclusive: 31.6 µM [inhibitor, partial curve]"
CCc1ccccc1N1C(=O)CC(N2CCc3ccccc32)C1=O (stereo unspecified),inactive: 2.54%,–
Cc1ccccc1NC(=O)CSc1nnc(-c2cccc(Cl)c2)o1,inactive: 1.01%,–
N#Cc1c(N2CCCCC2)nc(N)c2c(N)nc(SCC(=O)O)cc12,–,"inconclusive: 39.8 µM [inhibitor, partial curve, poor fit]"
CCOC(=O)Cn1c(=O)n(C2CCCCC2)c2nc(-c3cccc(C)c3)nc(C(N)=O)c21,inactive: 4.82%,–
Cc1ccc(/C(C#N)=C\c2ccc(N3CCOCC3)o2)cc1,–,"inconclusive: 50.1 µM [inhibitor, single point]"
CCOC(=O)c1sc(=S)n(-c2cc(OC)ccc2OC)c1N,–,"inconclusive: 11.2 µM [inhibitor, partial curve, poor fit]"
CCc1cc(-c2n[nH]c(=S)n2CC(C)C)cs1,–,active: 3.16 µM
CCCOc1ccc(-c2c(=O)n(OCC(=O)OCC)c3ccccc3[n+]2[O-])cc1,inactive: -1.2%,–
O=C(c1ccccc1Cl)N1CCN(CCc2ccccn2)CC1,inactive: 3.36%,–
CCc1n[nH]c(=S)n1/N=C/c1c(C)nn(-c2ccccc2)c1Cl,–,"inconclusive: 3.55 µM [inhibitor, full curve]"
CCOc1ccc(Cc2n[nH]c(=S)n2Cc2ccccc2)cc1,–,"inconclusive: 14.1 µM [inhibitor, partial curve]"
COCOCCn1cc(CN2CCS(=O)(=O)N(Cc3ccc(-c4ccc(OC)nc4)cc3)C(C(C)C)C2=O)nn1 (stereo unspecified),–,"inconclusive: 20 µM [inhibitor, partial curve, poor fit]"
